The supplement of paper PMC6609913
Structures can show the parent of a compound that is named as a salt. ± gives the standard deviation of the averaged measurements. Whole data set: some 1,300 compounds, median “normalised cell viability” near 1, cut for the lowest 2% near 0.14. The list shows a part of the results.

Tested on: V-C8 (BRCA2-deficient hamster cells)
Test: normalised cell viability (fraction of plate median); higher = more viable cells (less toxic)
Settings: 5 µM
Summary of the method: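 Hamster V-C8 cells lacking BRCA2 and V-C8 cells with BRCA2 restored were seeded in 96-well plates. Library drugs (10 mM DMSO stocks) were added 24 h later at 5 μM in 100 μl medium, next to DMSO control wells, for 3 days (screen 1) or 6 days (screen 2). Cell viability was read by resazurin assay, median-plate normalised (modified robust per cent of sample), and triplicate wells were averaged.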

Compound	normalised cell viability (treatment time: 3 days)	normalised cell viability (treatment time: 6 days)
Cc1ncc([N+](=O)[O-])n1CC(C)O (stereo not given) [Secnidazole]	1.02 ± 0.029	1.06 ± 0.033
O=C(O)c1ccccc1OP(=O)(O)O [Fosfosal]	1.02 ± 0.023	1.02 ± 0.029
Nc1cc(N2CCCCC2)nc(N)[n+]1[O-] [Minoxidil]	0.95 ± 0.061	0.994 ± 0.034
COc1ccc2cc([C@H](C)C(=O)O)ccc2c1 [Naproxen]	1.11 ± 0.11	1.09 ± 0.03
O=c1n(CCCN2CCN(c3cccc(Cl)c3)CC2)nc2ccccn12 [Trazodone hydrochloride]	1.11 ± 0.075	1.03 ± 0.03
CC1(C)S[C@@H]2[C@H](NC(=O)[C@H](N)c3ccccc3)C(=O)N2[C@H]1C(=O)O [Ampicillin trihydrate]	1.22 ± 0.038	1.07 ± 0.076
C[C@@H]1C[C@H]2[C@@H]3CCC4=CC(=O)C=C[C@]4(C)[C@@]3(Cl)[C@@H](O)C[C@]2(C)[C@@]1(OC(=O)c1ccco1)C(=O)CCl [Mometasone furoate]	0.923 ± 0.01	0.893 ± 0.036
CN1CCCN(C(c2ccccc2)c2ccc(Cl)cc2)CC1 (stereo not given) [Homochlorcyclizine dihydrochloride]	0.739 ± 0.037	0.789 ± 0.061
CCOc1ccc2nc(S(N)(=O)=O)sc2c1 [Ethoxzolamide]	1.09 ± 0.034	1.11 ± 0.019
Nc1ncnc2c1ncn2C1OC(COP(=O)(O)O)C(O)C1O (stereo not given) [Adenosine 5'-monophosphate monohydrate]	1.23 ± 0.043	1.09 ± 0.071
CCCCc1ccc2[nH]c(NC(=O)OC)nc2c1 [Parbendazole]	0.159 ± 0.012	0.189 ± 0.014
CCc1cccc(CC)c1NC(=O)CN(CC(=O)O)CC(=O)O [Etifenin]	1.07 ± 0.047	1.04 ± 0.043
CN/C(=N\CCSCc1nc[nH]c1C)NC#N [Cimetidine]	1.04 ± 0.068	1.1 ± 0.021
O=C(O)c1cc(/N=N/c2ccc(S(=O)(=O)Nc3ccccn3)cc2)ccc1O [Sulfasalazine]	1.03 ± 0.056	0.993 ± 0.046
CN1CCCN=C1/C=C/c1cccc(O)c1 [Oxantel pamoate]	1.07 ± 0.1	1.05 ± 0.077
CC(N)CCCC(C)(C)O (stereo not given) [Heptaminol hydrochloride]	0.959 ± 0.033	0.988 ± 0.069
Cc1cc2c(s1)Nc1ccccc1N=C2N1CCN(C)CC1 [Olanzapine]	0.955 ± 0.028	0.8962 ± 0.0033
CC=CC1=C(C(=O)O)N2C(=O)[C@@H](NC(=O)[C@H](N)c3ccc(O)cc3)[C@H]2SC1 [Cefprozil]	0.99 ± 0.14	0.966 ± 0.043

Compound	normalised cell viability (treatment time: 3 days)	normalised cell viability (treatment time: 6 days)
Cc1c(O)c(=O)n(-c2ccccc2)n1C [Antipyrine, 4-hydroxy]	1.01 ± 0.029	1 ± 0.029
CC(C)OC(=O)C(C)(C)Oc1ccc(C(=O)c2ccc(Cl)cc2)cc1 [Fenofibrate]	1 ± 0.055	0.994 ± 0.025
COC(=O)C1=C(C#N)NC(C)=C(C(=O)OC(C)C)C1c1cccc([N+](=O)[O-])c1 (stereo not given) [Nilvadipine]	0.939 ± 0.027	1.04 ± 0.1
CC1CC(OC(=O)c2ccccc2O)CC(C)(C)C1 (stereo not given) [Homosalate]	0.984 ± 0.17	1.03 ± 0.044
NC[C@@H]1O[C@@H](O[C@H]2[C@H](O)[C@@H](O[C@H]3O[C@H](CO)[C@@H](O)[C@H](N)[C@H]3O)[C@H](N)C[C@@H]2N)[C@@H](O)[C@H](O)[C@H]1O [Kanamycin A sulfate]	0.965 ± 0.052	1.04 ± 0.02
O=C(CCCN1CCN(c2ccccn2)CC1)c1ccc(F)cc1 [Azaperone]	0.863 ± 0.096	0.904 ± 0.11
C[C@H](CCC(=O)O)[C@H]1CC[C@H]2[C@@H]3[C@@H](O)C[C@@H]4C[C@H](O)CC[C@]4(C)[C@H]3CC[C@]12C [Urosiol]	0.921 ± 0.017	0.978 ± 0.039
C#C[C@]1(O)CC[C@H]2[C@@H]3CCC4=CCCC[C@@H]4[C@H]3CC[C@@]21C [Lynestrenol]	1.1 ± 0.046	1.12 ± 0.063
Nc1c2ccccc2nc2ccccc12 [Aminacrine]	0.127 ± 0.015	0.164 ± 0.015
CN1CCC(=C2c3ccccc3Sc3ccccc32)CC1 [Pimethixene maleate]	0.972 ± 0.025	1.02 ± 0.018
N[C@@H](Cc1cc(I)c(Oc2ccc(O)c(I)c2)c(I)c1)C(=O)O [Liothyronine]	0.959 ± 0.036	0.98 ± 0.023
CN1CCN(C(c2ccccc2)c2ccccc2)CC1 [Cyclizine hydrochloride]	1.06 ± 0.048	1.02 ± 0.012
CN(c1nccc(=O)[nH]1)C1CCN(c2nc3ccccc3n2Cc2ccc(F)cc2)CC1 [Mizolastine]	1.02 ± 0.068	1.11 ± 0.1
O=C(O)c1ccccc1C(=O)Nc1ccc(S(=O)(=O)Nc2nccs2)cc1 [Phthalylsulfathiazole]	1.04 ± 0.016	1.05 ± 0.091
OCCN(CCO)c1nc(N2CCCCC2)c2nc(N(CCO)CCO)nc(N3CCCCC3)c2n1 [Dipyridamole]	0.991 ± 0.018	0.992 ± 0.04
CC(=O)CC(c1ccccc1)c1c(O)c2ccccc2oc1=O (stereo not given) [Warfarin]	0.998 ± 0.043	1.05 ± 0.019
CO[C@@H]1[C@@H](O[C@@H]2O[C@H](C)[C@@H](O[C@H]3C[C@@](C)(O)[C@@H](OC(=O)CC(C)C)[C@H](C)O3)[C@H](N(C)C)[C@H]2O)[C@@H](CC=O)C[C@@H](C)[C@@H](O)/C=C/C=C/C[C@@H](C)OC(=O)C[C@H]1OC(C)=O [Josamycin]	0.566 ± 0.026	0.567 ± 0.012
